The supplement of paper PMC11417369
± gives the standard deviation of the averaged measurements. The list shows a part of the results.

tested on: PfAP2-EXP AP2 domain (GST-tagged); test: gcPBM binding intensity (ln(normalized median fluorescence intensity)); higher = stronger DNA binding
In short: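 DNA-binding domains from P. falciparum, fused to GST and produced in E. coli, were put on an Agilent 4 × 180k double-stranded probe array for 1 h in 1× PBS holding 1% milk, 0.2 mg/ml BSA, 0.5% salmon testes DNA and 0.03% Triton X-100. Probes were primer-extended, 36 bp long and drawn from intergenic genomic regions, with negative controls included. After Alexa488 anti-GST antibody detection and a 488 nm scan, binding intensity was set as the highest Masliner-normalised natural-log median intensity across replicate spots of either probe orientation.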

Sequence	gcPBM binding intensity (ln)
TTTTTAATCTCATATGTATAATATATTTTTATTAAA [XGTACX_negctrl_site236]	8.42 ± 0.58
AAAAAAAAAAAAAGAACATGCGACTTTAAGAACTGG [TGCATGCA_site792]	8.73 ± 0.49
TAAAAAATTATATATTGTACGAATGCATAAAAAAAA [XGTACX_site4606]	8.95 ± 0.37
TATGAAAATAAAATATGTACATATTTTAAATGTTAT [XGTACX_site7352]	8.59 ± 0.31
CAAATGTGTTCTTCAGGTACAGATACACATTTATGA [XGTACX_site2664]	8.34 ± 0.35
CACCATGTTAACAAAGCATGCATCTCTATAGTTTTA [TGCATGCA_site97]	9.06 ± 0.54
AAACAAAAAATATATACACACTAAACATAAAAAAAA [CACACA_site4185]	8.63 ± 0.41
AGTGACACCAAAGGGGTGCAATGAAATTAAAAATAT	8.84 ± 0.21
TTTATTCATTTCTAAAAATATTAAAATAGAATGAAT [CACACA_negctrl_site325]	8.3 ± 0.52
TAAAAAAAAATAAATGGTACACAATTAAATGTTTAT [XGTACX_site5255]	8.47 ± 0.28
ATATACTATATATAATGTACATATATATTATTATGC [XGTACX_site2957]	8.52 ± 0.37
ATAAGAAAATCAAAAAGTACTTTTTACAAAGATAAA [XGTACX_site824]	8.67 ± 0.4
ATTTTATGATATATTTGTACTTAACATTTGGATATA [XGTACX_site5888]	8.53 ± 0.36
TAGTTTTTTATATATTGTACAAATAATATATTATAT [XGTACX_site2564]	8.6 ± 0.5
TAAATTCTTTAAAACTTTAAAACAAAAAAAAAAAAA [CACACA_negctrl_site1078]	8.26 ± 0.41
GTAATTATTAATAAAACATGCGTATAAAATTTTCTC [TGCATGCA_site50]	8.7 ± 0.37
TCTTTTTTTAATAAAACATGCAATATTATATATGTA [TGCATGCA_site236]	8.55 ± 0.18
AAAAAAATATATATATATATATATATATATTTATAT [XGTACX_negctrl_site86]	8.57 ± 0.13
AACAGACGAAGACACACACACATATATATATATATA [CACACA_site1020]	10.2 ± 0.21

Sequence	gcPBM binding intensity (ln)
CGTTTTCTATATCATTGTACATATTCATGTGTAAAT [XGTACX_site2741]	8.57 ± 0.33
TAAAAGTTCACCTGTACACACATATAAATATGTACA [CACACA_site6901]	8.47 ± 0.33
TTGTTTAAGTCACGAACACACATATATCATCAATTT [CACACA_site986]	8.47 ± 0.38
AAAATTAACCGTAACACACACACATATAAATATGTA [CACACA_site7791]	8.48 ± 0.43
ATTAATAAATTCAATTGTACTTGTTTATACATAAAA [XGTACX_site3733]	8.36 ± 0.23
TTATTTTATTTTTGTGCACACTGATAAATTGAAAAG [CACACA_site2949]	8.93 ± 0.23
ATTTATTTTGTTGTTGTTTTTATTTGATTGTTTTAT [CACACA_negctrl_site1275]	8.76 ± 0.55
TTATGGTGCAACATTATGCACACCGTTAAATAACTA [CACACA_site3846]	8.67 ± 0.17
ATTTATGAAAAATGTACACACATCAAATGCTTATAT [CACACA_site4068]	8.62 ± 0.42
ACAAAATTATGTAGATGTACAGACATAGAAAGAGAT [XGTACX_site3096]	9.28 ± 0.38
GTTTGAATGGCGCACTGTACACATATATACATATAG [XGTACX_site8619]	9.12 ± 0.43
TACATATATATATATGTACACACATTAATAAAAAAA [CACACA_site9058]	8.68 ± 0.3
ATATTTTATTTTAATACACACAAGTTATATAACCAC [CACACA_site6508]	8.59 ± 0.41
ATAACAAAAAAAAAGGTGCTACAAAATGAATAAAAA [GTGCAC_site9659]	8.95 ± 0.44
AATATAAATAATTATACACACTTAATATATATATAC [CACACA_site5533]	8.46 ± 0.54
TAGGTGCCTTTTTTCACACACATGTCAACTAAATAT [CACACA_site2656]	8.83 ± 0.31
ATATTTAGGAAAAATAGTACACATTTAAATAATAAT [XGTACX_site7989]	8.63 ± 0.33
CTTTAAATTAATAAAAGTACATTATTTATATATTTT [XGTACX_site4808]	8.02 ± 0.42
AAATATATATATATATATATAAATATATACATATAT [TGCATGCA_negctrl_site517]	8.12 ± 0.33

Sequence	gcPBM binding intensity (ln)
AAAATGTCCCGTAGAAAATAAATTTATTACGCAATA [CACACA_negctrl_site1564]	8.45 ± 0.49
TATTAATTTAAATGGGTGCAAAACCTATATAAATAT	8.76 ± 0.13
ATTTATGTTAATAAGTGTACAATAAATTTTTTTTAT [XGTACX_site7658]	8.21 ± 0.11
AACATATATAAATACACACACATATATATATGAAAT [CACACA_site4312]	8.65 ± 0.52
ATGTGTATATATATGTGTACATAATTTGTGTTATTC [XGTACX_site2509]	8.65 ± 0.42
TAATATGTTTATGGTAACATACAAAAATGTATATAT [GTGCAC_negctrl_site204]	8.21 ± 0.49
TATCCCCTTGTCCATATTAATTGTGACATCATATAT [XGTACX_negctrl_site9]	8.91 ± 0.45
TATTTTTTATTTTAAATCCTCTGATATTTAATTTGT [TGCATGCA_negctrl_site84]	8.35 ± 0.35
AAGGTATAATATATTTGTACATATACATTTTTGAAT [XGTACX_site6493]	8.3 ± 0.26
GATTTTAATGGGTGTACACATTTATTTATATAAAGT [CACACA_site5317]	8.63 ± 0.25
TGAAAAATGTAATGCTCACACATATATATATATATA [CACACA_site5213]	10.2 ± 0.32
ACATTTAAATAATATGTGCACAGCTATATTTTCTTT [GTGCAC_site9562]	8.79 ± 0.3
ATATATATATATATATGTACATATATATATTATATT [XGTACX_site6303]	10 ± 0.62
TTATGGTGCATGAAATCACACATTGATATATATGCT [CACACA_site5352]	8.53 ± 0.028
GTGTCTTTTATTAAATGTACATATTCATAGATAAAA [XGTACX_site8578]	8.63 ± 0.37
TAGAATGAAAAAAAAGCATGCGGGCAAAAATTTTTA [TGCATGCA_site926]	9.43 ± 0.58
ACCTTAAAAATAACTGCACACAAAAATAAATACCTT [CACACA_site8902]	9.63 ± 0.54
ACGTAAACATGTAGAAGGCATTACACAATGGTATAC [TGCATGCA_negctrl_site512]	8.97 ± 0.35
